# Source: PubChem BioAssay AID881 (National Center for Advancing Translational Sciences (NCATS), 2007)
# Among all 110,000 compounds or so, about 610 (0.55%) were called active. Inconclusive results, whose numbers are uncertain, are shown with a selection of clear calls. Calls come from the whole dose curve; as a rule, active = well fitted inhibition curve with a large enough effect; inconclusive = small, poorly fitted or top-dose-only effect; inactive = no such curve, though single readings can be large or run the other way. Potencies of inconclusive entries are doubtful fits and often do not repeat.
# Target: Polyunsaturated fatty acid lipoxygenase ALOX15B (Homo sapiens) (UniProt O15296)
# UniProt O15296, sequence (O15296 whole entry, looked up): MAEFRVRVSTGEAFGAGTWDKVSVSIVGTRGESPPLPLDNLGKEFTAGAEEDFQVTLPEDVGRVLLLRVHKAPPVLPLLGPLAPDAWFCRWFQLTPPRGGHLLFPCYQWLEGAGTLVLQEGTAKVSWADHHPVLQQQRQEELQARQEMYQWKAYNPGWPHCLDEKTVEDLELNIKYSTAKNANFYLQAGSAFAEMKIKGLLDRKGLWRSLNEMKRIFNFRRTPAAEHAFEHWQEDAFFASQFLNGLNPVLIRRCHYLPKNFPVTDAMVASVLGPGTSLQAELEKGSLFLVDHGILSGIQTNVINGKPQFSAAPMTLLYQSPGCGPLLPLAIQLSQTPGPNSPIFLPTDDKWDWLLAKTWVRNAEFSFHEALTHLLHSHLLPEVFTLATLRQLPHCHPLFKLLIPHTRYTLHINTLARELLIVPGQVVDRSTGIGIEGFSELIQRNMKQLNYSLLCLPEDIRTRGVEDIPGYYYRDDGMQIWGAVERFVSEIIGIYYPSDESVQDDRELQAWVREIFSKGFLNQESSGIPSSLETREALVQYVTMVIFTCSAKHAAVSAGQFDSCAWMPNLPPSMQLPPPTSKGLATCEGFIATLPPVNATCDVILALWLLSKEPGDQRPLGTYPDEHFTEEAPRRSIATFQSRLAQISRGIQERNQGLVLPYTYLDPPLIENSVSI
# Test: qHTS Assay for Inhibitors of 15-hLO-2 (15-human lipoxygenase 2); note: nearly all actives have a fitted effect of over 60% in size
# Settings: purified 15hLO-2, xylenol orange hydroperoxide absorbance; activity change, negative = inhibition: at 57.1 µM (top of the series) unless noted
# Method in brief: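 Purified human 15hLO-2 (50 nM) preincubated 15 min with compound, then 45 uM arachidonic acid for 90 min at RT in 25 mM Hepes pH 7.5, 0.01% Triton X-100. Hydroperoxide detected by Fe-xylenol orange; 573/405 nm absorbance ratio.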
# % is set by controls: 0 for no effect and ±100 for the full control effect; potency is the fitted concentration of half-maximal effect; tags give direction and shape of the fitted curve.
SMILES,Potency,"activity change, negative = inhibition"
Cc1ccc(O)c(N=CC2=C(O)c3ccccc3C2=O)c1,"inconclusive: 20 µM [inhibitor, partial curve]",–
CCCCc1ccc(NC(=O)CC(C)=O)cc1,–,inactive: 0.359%
O=C(COc1cc(O)c2c(=O)cc(-c3ccccc3)oc2c1)c1ccc(F)cc1,"inconclusive: 15.8 µM [inhibitor, partial curve]",–
C#C[C@H](N)CCC(=O)O,–,inactive: 5.39%
CCCCOc1ccccc1NC(=O)CC1Nc2ccccc2NC1=O (stereo not drawn),"inconclusive: 15.8 µM [inhibitor, partial curve]",–
O=C(OC1CCCCC1)c1ccc2c(c1)C1C=CCC1C(C(=O)O)N2 (stereo not drawn),"inconclusive: 25.1 µM [inhibitor, partial curve]",–
CCCc1ccc(Oc2cc(C)nc(N3CCOCC3)n2)cc1,"inconclusive: 3.98 µM [inhibitor, single point]",–
CSc1cccc(-n2cc(-c3ccc4c(c3)OCO4)[nH]c2=O)c1,"inconclusive: 15.8 µM [inhibitor, partial curve]",–
CCCc1nnc(NC(=O)c2cccs2)s1,"inconclusive: 0.316 µM [inhibitor, partial curve, poor fit]",–
O=C(Nc1nnc(SCc2ccc(F)cc2)s1)C1Cc2ccccc2CN1C(=O)c1ccco1 (stereo not drawn),"inconclusive: 20 µM [inhibitor, single point]",–
CC1=CC(C)(C)Nc2ccc(OC(=O)CN3C(=O)c4cccc5cccc(c45)C3=O)cc21,active: 12.6 µM,–
Cc1ccc([N+](=O)[O-])cc1NC(=S)NC(=O)C(C)(C)C,"inconclusive: 15.8 µM [inhibitor, partial curve, poor fit]",–
CC(C)(C)c1ccc(O)c(O)c1,active: 5.01 µM,–
O=C1SC(SCc2ccccc2)=N/C1=C\c1ccco1,"inconclusive: 20 µM [inhibitor, single point]",–
N#CC(=C1CCCC1)c1nc(-c2ccccc2O)cs1,"inconclusive: 25.1 µM [inhibitor, single point]",–
COc1ccc(C(=O)N/N=C/c2cc3ccccc3[nH]c2=S)cc1,"inconclusive: 10 µM [inhibitor, partial curve]",–
CCOc1cc(/C=C2/C(=O)ON=C2C)ccc1OCc1ccccc1F,"inconclusive: 2 µM [inhibitor, full curve]",–
CC(C)c1cc(C(=O)Nc2cc(Cl)ccc2O)no1,"inconclusive: 1.58 µM [inhibitor, full curve, poor fit]",–
CCn1c(SCC(=O)Nc2ccc3c(c2)oc2ccccc23)nnc1-c1ccc(N)cc1,"inconclusive: 25.1 µM [inhibitor, partial curve]",–
COc1cc(/C=C2\SC(c3ccc(C)cc3)=NC2=O)ccc1O,"inconclusive: 20 µM [inhibitor, partial curve]",–
COc1ccc(-n2c(=O)cnc3cnc(N4CCNCC4)nc32)cc1,–,inactive: -1.67%
COc1cc2c(C=O)c3c4c(cc(OC)c(OC)c4c2cc1OC)CCN3C,active: 31.6 µM,–
CCOc1ccc(C2C(C#N)=C(N)SC(N)=C2C#N)cc1OCC,"inconclusive: 15.8 µM [inhibitor, partial curve]",–
Cc1ccc(C2CC(=O)Oc3ccc(O)cc32)cc1 (stereo not drawn),"inconclusive: 20 µM [inhibitor, partial curve]",–
Clc1ccc(NNc2ccnc3cc(Cl)ccc23)cc1,active: 15.8 µM,–

SMILES,Potency,"activity change, negative = inhibition"
CC1(C)Cc2nc3oc4c(=S)nc[nH]c4c3cc2CO1,"inconclusive: 31.6 µM [inhibitor, single point]",–
O=C(c1ccc(Oc2ccccc2)cc1)c1nc2c(n1O)CCCC2,–,inactive: 26.8%
COc1cccc(OC)c1C(=O)NC(=S)N1CCN(c2ccc(C(F)(F)F)cc2[N+](=O)[O-])CC1,"inconclusive: 12.6 µM [inhibitor, partial curve]",–
Oc1c(Cl)cc(Cl)c2cccnc12,"inconclusive: 25.1 µM [inhibitor, single point]",–
COc1cc(/C=C/C(=O)/C=C(O)/C=C/c2ccc(O)c(OC)c2)ccc1O,"inconclusive: 10 µM [inhibitor, partial curve]",–
CC1=C(C(=O)Nc2ccccc2)C2(CCCCC2)C(C#N)=C(S)N1,"inconclusive: 10 µM [inhibitor, partial curve]",–
CC(C)n1c(Nc2ccccc2)nc2ccccc21,–,inactive: 38.3%
CCOc1ccc(-c2nnc(SCC(=O)Nc3ccc4c(c3)c3ccccc3n4CC)n2N)cc1,"inconclusive: 12.6 µM [inhibitor, partial curve, poor fit]",–
COC(=O)c1c(C)n(-c2ccc(OC)cc2)c2ccc(O)cc12,"inconclusive: 15.8 µM [inhibitor, single point]",–
N[C@H](C(=O)O)[C@@H](O)c1cnc[nH]1,–,inactive: -6.71% [at 11.4 µM]
COc1ccc(/C=C\C(=O)c2c(O)ccc3c(C)cc(=O)oc23)cc1,"inconclusive: 31.6 µM [inhibitor, single point]",–
COc1ccc(-n2c(N)c(C(=O)NCC3CCCO3)sc2=S)cc1 (stereo not drawn),–,inactive: -12.7%
NC(=S)Nc1cc2ccccc2c2ccccc12,"inconclusive: 25.1 µM [inhibitor, partial curve]",–
CC1CCN(c2[nH]c(=S)c(C#N)c3c2CCCC3)CC1,"inconclusive: 31.6 µM [inhibitor, single point]",–
Cc1ccc(CN=Cc2[nH]c3ccc(Br)c(Cl)c3c2O)cc1,"inconclusive: 5.01 µM [inhibitor, partial curve]",–
CCCCN=Cc1sc2ccc(OCC)cc2c1O,"inconclusive: 10 µM [inhibitor, partial curve]",–
Cc1ccc(O)c(C(=O)CC(=O)c2cccc(F)c2)c1,–,inactive: -1.22%
CCn1cc(/C=C2\SC(=O)N(CC(=O)Nc3ccc4c(c3)OCO4)C2=O)c2ccccc21,"inconclusive: 15.8 µM [inhibitor, partial curve]",–
CN(C)c1ccc(N/C=C/C(=O)C(C)(C)C)cc1,active: 25.1 µM,–
Cc1sc(N/N=C/C=C/c2ccccc2)nc1-c1ccccc1,"inconclusive: 1.26 µM [inhibitor, full curve, poor fit]",–
Cc1nc2cnc(N(C)C)nc2n(Cc2ccc(F)cc2)c1=O,–,inactive: 9.16%
COc1ccc(OC)c(N=c2ssnc2Cl)c1,active: 25.1 µM,–
CN(C)c1ccc(C(=S)N2CCCCCC2)cc1,–,inactive: -7.94%
COC(=O)CSc1nc2ccc(NC(=O)CSc3nnnn3Cc3ccccc3)cc2s1,"inconclusive: 20 µM [inhibitor, single point]",–
Cc1cccc(C)c1-n1c(C)cc(/C=N/NC(N)=S)c1C,active: 20 µM,–

SMILES,Potency,"activity change, negative = inhibition"
COc1cc(NC(=S)NC(=O)c2c(OC)cccc2OC)ccc1NC(=O)c1cccs1,"inconclusive: 12.6 µM [inhibitor, partial curve]",–
CC1=C(C)/C(=N\OS(=O)(=O)c2ccccc2)C=CC1=O,"inconclusive: 15.8 µM [inhibitor, partial curve]",–
CCC(=O)Nc1sc2c(c1C(N)=O)CCC2,–,inactive: -1.49%
COc1cccc(OCc2nnc(SCC(=O)NCc3ccco3)n2CCc2ccccc2)c1,"inconclusive: 20 µM [inhibitor, single point]",–
COCCNS(=O)(=O)c1cc(OC)c(Cl)cc1Cl,–,inactive: -3.33%
CCCOC(=S)NC(=O)c1sc2ccccc2c1Cl,"inconclusive: 20 µM [inhibitor, single point]",–
Nc1ccc2c(c1)C(=O)C(=O)c1ccccc1-2,"inconclusive: 20 µM [inhibitor, partial curve]",–
CN(C)c1ccc(N=c2sc3ccccc3n2C)cc1,active: 7.94 µM,–
CCCc1nc2ccccc2c(=O)n1/N=C/c1ccc(O)c(O)c1,"inconclusive: 15.8 µM [inhibitor, partial curve]",–
CN1CCN(c2ncncc2-c2cccnc2)CC1,–,inactive: 9.59%
CCOc1ccccc1N1Cc2ccccc2C1,"inconclusive: 12.6 µM [inhibitor, partial curve]",–
COc1ccc(-c2noc(CSc3nc(-c4ccccc4)cc(=O)[nH]3)n2)cc1OC,"inconclusive: 25.1 µM [inhibitor, partial curve]",–
CCOC(=O)Cn1c(=O)oc2cc(S(=O)(=O)Nc3cc(Cl)ccc3OC)ccc21,–,inactive: 2.45%
Fc1ccc(C2CC(c3ccco3)=NN2c2ccccc2)cc1 (stereo not drawn),"inconclusive: 3.16 µM [inhibitor, full curve, poor fit]",–
CN(C)c1cccc(C(=O)NC2CCCCCC2)c1,"inconclusive: 25.1 µM [inhibitor, single point]",–
Cc1nnc2n(Cc3ccccc3)c(=O)c3c4c(sc3n12)CN(Cc1ccccc1)CC4,"inconclusive: 39.8 µM [inhibitor, single point]",–
CCNC(=S)Nc1ccc(N(c2ccccc2)C(C)C)cc1,"inconclusive: 12.6 µM [inhibitor, partial curve]",–
Cc1ccc(NC(=O)C(=O)NCc2ccc(/C=C(/C#N)C(=O)NCc3cccnc3)o2)cc1,"inconclusive: 39.8 µM [inhibitor, single point]",–
O=c1c(/C=N/Nc2ccccc2)c(Sc2nnnn2-c2ccccc2)nc2ccccn12,"inconclusive: 1.58 µM [inhibitor, partial curve]",–
O=C(/C(=C/c1ccccc1)c1ccccc1)N1CCCCC1,–,inactive: -6.28%
CSCSC1=C(C#N)C(c2ccc(Cl)cc2)C(C(C)=O)=C(C)N1 (stereo not drawn),"inconclusive: 25.1 µM [inhibitor, single point]",–
Nc1ccccc1Nc1ccccc1,"inconclusive: 15.8 µM [inhibitor, partial curve]",–
COc1ccc(-c2nc(C#N)c(NCc3cccnc3)o2)cc1OC,"inconclusive: 0.251 µM [inhibitor, full curve, poor fit]",–
